Each structure is given as a SMILES string. In all, about 150,000 compounds went through this assay and about 540 (0.36%) showed an effect of 50% or more. This is one part of the list.

This assay deals with Plasmodium falciparum. In words: Primary screen in NF54 nanoGlo assay, in single point, at 2uM, 72h; a lower Z score goes with more inhibition. Type of assay: functional, Erythrocyte. The conditions noted are these: timepoint 72 hour.
The term % Inhibition denotes the change of the read-out against control, counted positive when it falls. With `NC(CC(=O)Nc1cccc(C(F)(F)F)c1)=NO`, the “% Inhibition” value was determined as 8% and the Z score was -1.05.
Regarding `O=C(CC1CCCCC1)Nc1cnn([C@H]2CCOC2)c1`, the “% Inhibition” value is recorded as 13% and the Z score was -1.67.
Take `COc1cccc(F)c1[C@H](C)Nc1nc(N)c2cnn(C)c2n1`: the “% Inhibition” value is recorded as 0% and the Z score is listed as -0.07.
Turning to `CCO[C@H]1COC[C@@H]1NC(=O)Nc1cccc(Cl)c1`, the “% Inhibition” value was 5% and the Z score was -0.53.
For the molecule `CC(C)(C)OC(=O)NCC=CCNc1ncc(Cl)cn1`, the “% Inhibition” value is listed as -14% and the Z score is listed as 1.38.
In the case of `CN1CCC[C@H](N2CCn3c(Cc4ccccc4)nnc3C2)C1=O`, the “% Inhibition” value is recorded as -4% and the Z score was 0.67.
`O=C(NC1CCC(C(=O)N2CCCCCC2)CC1)C1CCCC1` (stereo unspecified): the “% Inhibition” value amounted to 6% and the Z score is recorded as -1.26.
As to `[O-][N+]1=N[C@@H]2CCCC[C@@H]2N1OCc1ccccc1`, the “% Inhibition” value is recorded as -4% and the Z score came out at 0.52.
Turning to `Cc1[nH]c(C)c(S(=O)(=O)N2CCC(C(=O)N3CCN(C4CCCCC4)CC3)CC2)c1C(=O)N1CCCCC1`, the “% Inhibition” value is reported as 1% and the Z score is -0.1.
For `CCOC(=O)C(=O)Nc1nnc(C(CC)CC)s1`, the “% Inhibition” value is -5% and the Z score was determined as 0.92.
On to `O=C1[C@@H](n2ncnc2-c2ccccc2Cl)CCN1CC(F)(F)F`, for which the “% Inhibition” value is -2% and the Z score is on record as 0.32.
For the molecule `CC[C@H](O)Cn1nc(CC2CC2)nc1-c1cc(C)oc1C`, the “% Inhibition” value is -9% and the Z score is 1.21.
Take `COc1ccccc1N1C[C@]23C=C[C@H](O2)C(C(=O)Nc2ccc(OC(F)(F)F)cc2)C3C1=O` (stereo partly specified): the “% Inhibition” value is listed as -22% and the Z score was found to be 3.39.
In the case of `Cc1cc(-c2cc(C(F)(F)F)cc(C(F)(F)F)c2)c(=O)[nH]c1C`, the “% Inhibition” value is given as -1% and the Z score stood at 0.24.
The matching figures for `NC(=O)c1ccc(COc2ccc3c(c2)CCC3=O)cc1`: 32% and -1.4.
The matching figures for `O=C(NC1CC1)c1ccc(N2CC[C@H](NCc3ccc(F)c(F)c3)C2)nc1`: -17% and 1.67.
In the same order, the values of `C[C@@H](c1nnnn1C1CC1)N1CCC(n2ccnc2)CC1` are 3% and -0.5.
Turning to `COc1cc(C(=O)Nc2cccc(Oc3ccccc3C(N)=O)c2)ccc1OC(F)F`, the “% Inhibition” value is -1% and the Z score is listed as 0.12.
For the molecule `CCN(CC)c1ccc2nnc(CCC(=O)Nc3cccnc3)n2n1`, the “% Inhibition” value was -14% and the Z score came to 2.31.
On to `O=C(Cn1nnc2ccccc21)N(Cc1cccnc1)C1(C(=O)Nc2ccc3c(c2)OCO3)CCCC1`, for which the “% Inhibition” value turned out to be 5% and the Z score is given as -0.59.
Take `CCC1(N2CCCCC2)CCN(c2nc(N)nc(C(F)(F)F)n2)CC1`: the “% Inhibition” value came out at 27% and the Z score is -3.13.
For the molecule `COCCS(=O)(=O)Nc1c(F)c(F)cc(F)c1F`, the “% Inhibition” value is -12% and the Z score was determined as 1.58.
In the case of `FC(F)(F)C1CCC(Cn2nnnc2C2CCOCC2)CC1` (stereo unspecified), the “% Inhibition” value was -8% and the Z score came out at 1.25.
In the same order, the values of `CCCn1c(N2CCC[C@H](C(=O)NC3CC3)C2)nc2ccccc21` are -17% and 2.72.
The matching figures for `CC(C)(C#N)NCc1ccc(Cl)cc1`: -18% and 3.34.
For the molecule `COc1ccc(-c2nc(C)c(C(=O)Nc3n[nH]c(CC(C)C)n3)s2)cc1OC`, the “% Inhibition” value is reported as 15% and the Z score is listed as -2.32.
With `O=C1CCN(Cc2cc(C#CCO)cs2)CCN1Cc1cscn1`, the “% Inhibition” value is reported as -4% and the Z score turned out to be 0.53.
In the same order, the values of `COCCn1c([C@H](C)NC(=O)c2cc(-c3ccc(OC)c(OC)c3)n[nH]2)nc2ccccc21` are 7% and -1.03.
For the molecule `CN(C)c1ccc(C(=O)Nc2nnc(C3CC3)s2)cc1`, the “% Inhibition” value is -4% and the Z score amounted to 0.71.
Take `CC(C)(C)OC(=O)N1CCc2[nH]nc(N)c2C1`: the “% Inhibition” value is on record as -6% and the Z score was 0.74.
Consider `CN(CC1COc2ccccc2O1)C(C(=O)O)c1ccsc1` (stereo unspecified), for which the “% Inhibition” value was -13% and the Z score is 2.51.
On to `CCN(C(=O)c1nc2nccc(C)n2n1)c1ccc(C(F)(F)F)cc1`, for which the “% Inhibition” value is reported as -11% and the Z score was determined as 1.78.
Consider `COc1ccccc1[C@@H](O)Cn1cc(C(=O)Nc2cccc(Cl)c2F)nn1`, for which the “% Inhibition” value is reported as -11% and the Z score amounted to 2.05.
For `COc1ccccc1CN1C(=O)O[C@H]2CN(Cc3sccc3C)C[C@H]21`, the “% Inhibition” value is -13% and the Z score is 2.67.
Turning to `C#CCC(C)(C)COC(=O)c1ccnc(C)c1`, the “% Inhibition” value was -2% and the Z score was 0.25.
On to `CC(C)(C)[C@H]1CCc2c(sc(NC(=O)C3(F)C(F)(F)C(F)(F)C(F)(F)C(F)(F)C3(F)F)c2C#N)C1`, for which the “% Inhibition” value is recorded as 77% and the Z score is recorded as -6.03.
Consider `CN1CCc2ncnc(N[C@H]3CC[C@H](Nc4ccccn4)CC3)c2C1`, for which the “% Inhibition” value is -12% and the Z score stood at 2.28.
In the case of `COc1cccc(CN2CC(CN(C(=O)c3ccc(F)cc3)C(C)C)C(c3cccc(C(F)(F)F)c3)C2)c1` (stereo unspecified), the “% Inhibition” value is recorded as -7% and the Z score worked out at 1.09.
Take `CC(C)n1nnnc1CN[C@H]1CC(C)(C)OC1(C)C`: the “% Inhibition” value is -18% and the Z score is 1.49.
Regarding `C[C@H]1Cc2cc(CNC(=O)c3[nH]nc4c3CCC4)ccc2O1`, the “% Inhibition” value is given as -3% and the Z score turned out to be 0.56.
Consider `O=C(Nc1cccc(C#Cc2ccccn2)c1)NC1CCCC1O` (stereo unspecified), for which the “% Inhibition” value is -9% and the Z score was 1.09.
On to `N#Cc1ccc(CN[C@@]2(CO)CCOc3ccccc32)cc1`, for which the “% Inhibition” value was -2% and the Z score amounted to 0.37.
In the same order, the values of `CN=C(NCc1ccc(OC(C)C)c(F)c1)NCc1ccccn1` are 2% and -0.26.
The matching figures for `O=C(c1coc(COc2cccc(C(F)(F)F)c2)n1)N1CCN2CCC[C@H]2C1`: -22% and 1.96.
`CN(CCc1ccccc1)C[C@@H]1OC[C@H](NC(=O)C2CCCC2)[C@H]1O`: the “% Inhibition” value is given as -5% and the Z score is listed as 0.79.
On to `CN(C)S(=O)(=O)N1CCO[C@@H](CC(c2ccccc2)c2ccccc2)C1`, for which the “% Inhibition” value is -6% and the Z score came to 0.73.
As for `Cc1ccc(-n2nc3c(N4CCN(C(=O)Nc5cccc(C)c5C)CC4)nnc(C)c3c2C)cc1`, the “% Inhibition” value was -3% and the Z score was found to be 0.36.
As for `CCN1CCC(CC(=O)NCCCn2cc(Cl)cn2)CC1`, the “% Inhibition” value is listed as -14% and the Z score came out at 1.86.
With `CC(C)CCC(=O)NCC(=O)N[C@@H](C)c1csc(C(C)C)n1`, the “% Inhibition” value is -9% and the Z score is given as 0.99.
Consider `COc1cc2c(cc1CNC(=O)CN(c1ccc3c(c1)OCCCO3)S(C)(=O)=O)OCCCO2`, for which the “% Inhibition” value is on record as -8% and the Z score turned out to be 1.15.
Take `COc1ccc(-c2cc3nccc(-c4cccnc4)n3n2)cc1`: the “% Inhibition” value was -7% and the Z score is 0.89.
Turning to `O=C(CCN1CCC[C@H](CN2CCN(c3ccccn3)CC2)C1)N1CCN(c2ccccn2)CC1`, the “% Inhibition” value is given as -4% and the Z score came out at 0.56.
The matching figures for `Cc1cccc(NC(=O)NC(=O)CN(C)CC(=O)Nc2ccc(Br)cn2)c1C`: 6% and -0.83.
